About 11,000 (3.1%) of roughly 360,000 compounds were called active. This list was built around the results that the source calls inconclusive (neither active nor inactive); the mix of calls is not that of the screen. Calls follow the shape of the dose curve; as a rule, active = well fitted inhibition curve with a large enough effect; inconclusive = small, poorly fitted or top-dose-only effect; inactive = no such curve, though single readings can be large or run the other way. No potency is given beside an inconclusive call; the fits are too rough.
These compounds were tested against Schistosoma mansoni thioredoxin glutathione reductase (TGR) (UniProt Q962Y6) (assay: qHTS Assay for the Inhibitors of Schistosoma Mansoni Peroxiredoxins). Details: purified TGR, DTNB reduction, TNB absorbance 405 nm; series mostly up to 114 µM.
In short: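 Kinetic colorimetric format: TGR-catalysed, NADPH-driven DTNB reduction monitored via TNB absorbance. Enzyme dispensed at 20 nM; compound exposure 15 min at room temperature before reaction start.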
Also: nearly all actives have a fitted effect of over 60% in size.
Potency is read from the fitted curve at half-maximal effect; tags tell the direction and shape of the fitted curve.

Row | Structure (SMILES) | Potency
1 | CCOC(=O)c1[nH]c(=O)[nH]c1CSc1ccccn1 | active: 14.1 µM
2 | COc1ccc2c(c1)c1nnc(SCC(=O)N3CCCCC3C)nc1n2C (stereo not drawn) | inactive
3 | COc1ccc(C(=O)N2CCN(c3ccc(F)cc3)CC2)cc1S(=O)(=O)NC1CC1 | inconclusive [inhibitor, single point]
4 | Cc1occc1-c1nnc(SCC(=O)N2CCOCC2)n1Cc1ccco1 | inconclusive [inhibitor, partial curve]
5 | O=C(O)CCCN1C(=O)C2C3C=CC(C2C1=O)C1C(=O)N(CCCC(=O)O)C(=O)C31 (stereo not drawn) | inactive
6 | Cc1ccc(-n2ncc3c(=O)n(CC(=O)N(C)C)cnc32)cc1C | inconclusive [inhibitor, full curve, poor fit]
7 | Cc1ccc(-n2c(=O)c3ccc(C(=O)NCc4ccco4)cc3n(CC(=O)Nc3ccccc3C(F)(F)F)c2=O)cc1 | inactive
8 | COC(=O)C1=C(c2ccc(Cl)c(C(F)(F)F)c2)C[C@@H]2CC[C@H]1N2C(=O)N1CCCC1 | inactive
9 | CC1(C)S[C@@H]2[C@H](NC(=O)Cc3ccccc3)C(=O)N2[C@H]1C(=O)O | inactive
10 | O=C(Nc1cc2c(cc1C(=O)c1cccc(Br)c1)OCCO2)c1ccccc1F | inactive
11 | CN1CCN(C(=O)C2=C[C@@H](c3ccc(C(F)(F)F)cc3)C[C@@H](OCc3ccc(CO)cc3)O2)CC1 | inconclusive [inhibitor, single point]
12 | COC(=O)c1cccc(C23CC4(C2)[C@H](CN(Cc2ccc(C(F)(F)F)cc2)[C@@H]4c2ccccc2)C3c2ccccc2)c1 (stereo partly drawn) | inconclusive [inhibitor, partial curve]
13 | CC(=O)Nc1ccc(C(=O)COC(=O)C2CC3CCCC(C2)C3=O)cc1 (stereo not drawn) | inconclusive [inhibitor, partial curve]
14 | O=C(CN1C(=O)C(=O)N(Cc2ccco2)C1=O)c1c[nH]c2ccccc12 | inconclusive [inhibitor, partial curve]
15 | O=C(CCl)NN1C(=O)NC(c2ccccc2)(c2ccccc2)C1=O | inconclusive [inhibitor, partial curve]
16 | COc1ccc2sc(-c3ccc(N(C)C)cc3)c(C#CCO)c2c1 | inconclusive [inhibitor, partial curve]
17 | CC(=O)Nc1ccc(N2C(=O)c3ccc(S(=O)(=O)c4ccc(C(=O)O)cc4)cc3C2=O)cc1 | inactive
18 | CCOc1cc(C2C(C(=O)OC)=CN(C3CCCC3)C=C2C(=O)OC)cc(Br)c1O | active: 56.2 µM
19 | COCCN=c1scc(-c2cccs2)n1/N=C(\C)c1ccco1 | inconclusive [inhibitor, partial curve]
20 | CN1C/C(=C/c2ccncc2)C(=O)/C(=C/c2ccncc2)C1 | inconclusive [inhibitor, full curve]
21 | O=C1CCCC2=C1C(c1ccc(O)c(O)c1)Nc1ccc3ncccc3c12 (stereo not drawn) | active: 20 µM
22 | CC(C)(C)c1nnc(N/N=C/c2cc(Br)ccc2O)n(N)c1=O | inactive

Row | Structure (SMILES) | Potency
23 | Cc1cccc(OCC(=O)N/N=C/c2sc(=O)n(Cc3cccc(C(=O)O)c3)c2Cl)c1 | active: 25.1 µM
24 | COc1cc2c(cc1OC)C1=C(C#N)COCN1CC2 | active: 20 µM
25 | COCCN(C(=O)CSc1nnc(-c2ccc(C(C)(C)C)cc2)n1N)c1c(N)n(CC(C)C)c(=O)[nH]c1=O | inactive
26 | O=C(CCC(=O)c1cccs1)NCc1ccncc1 | inconclusive [inhibitor, single point]
27 | COc1cccc(-c2nc(CS(=O)(=O)CC(=O)N3CCc4ccccc4C3)c(C)o2)c1 | inconclusive [inhibitor, partial curve, poor fit]
28 | O=C(c1ccco1)N1CCN(C(c2ccccc2Cl)c2nnnn2Cc2ccco2)CC1 (stereo not drawn) | inconclusive [inhibitor, full curve]
29 | Cc1ccc(S(=O)(=O)N(C)C)cc1NC(=O)C1Cc2ccccc2CN1C(=O)c1ccco1 (stereo not drawn) | inconclusive [inhibitor, partial curve]
30 | Cc1ccccc1-n1c(=O)cc(N2CCN(Cc3ccccc3)CC2)[nH]c1=O | inconclusive [inhibitor, full curve, poor fit]
31 | COc1ccc(S(=O)(=O)N2CCCCC2)cc1NC(=O)c1ccc([N+](=O)[O-])o1 | inconclusive [inhibitor, single point]
32 | CCOC(=O)c1c(-c2ccc(C)cc2)csc1NC(=O)c1cc2ccccc2oc1=O | active: 14.1 µM
33 | COc1cc(C2Nc3cccc4cccc(c34)N2)ccc1OC(C)=O | inconclusive [inhibitor, partial curve]
34 | CCn1cc(Br)c(C(=O)Nc2ccc(C(=O)OC(C)C)cc2)n1 | inactive
35 | COc1ccc2nc3oc(C(=O)N4CCN(c5cc(C)ccc5C)CC4)cc3cc2c1 | active: 89.1 µM
36 | O=C(c1ccccc1)N1CC(COc2ccccc2)OC(c2cccnc2)O1 (stereo not drawn) | inactive
37 | O=C(O)C1=C[C@H](C2CC2)C[C@H](OCCCCO)O1 | inconclusive [inhibitor, full curve, poor fit]
38 | Cc1ccc(CSC2=Nc3ccccc3C3=NC(CCC(=O)NCc4ccco4)C(=O)N23)cc1 (stereo not drawn) | inconclusive [inhibitor, partial curve]
39 | COCCCn1c(C)nnc1SCC(=O)NCc1ccco1 | inconclusive [inhibitor, partial curve]
40 | Cc1c(C(=O)NCc2ccccc2)sc2nc3n(c(=O)c12)CCCCC3 | inconclusive [inhibitor, partial curve]
41 | Cc1ccc(C(=O)c2coc3ccc(O)c(CN4CCN(C)CC4)c23)cc1 | inactive
42 | COc1cc(OC)cc(C(=O)NC(=S)NNC(=O)[C@H]2C[C@@H]2c2ccccc2)c1 | inconclusive [inhibitor, full curve, poor fit]
43 | O=C(CSc1nnc(-c2cnccn2)n1Cc1ccco1)Nc1ccc(Br)cc1 | inconclusive [inhibitor, partial curve]
